In all, about 270,000 compounds went through this assay and about 5,800 (2.1%) were called active. This list was built around the results that the source calls inconclusive (neither active nor inactive); the mix of calls is not that of the screen. Calls come from the whole dose curve; as a rule, active = well fitted inhibition curve with a large enough effect; inconclusive = small, poorly fitted or top-dose-only effect; inactive = flat fitted curve, though single readings scatter. Potencies beside an inconclusive call are fits to weak or partial responses and may not hold up.
These compounds were tested against Microtubule-associated protein tau (Homo sapiens) (UniProt P10636) (assay: qHTS for Inhibitors of Tau Fibril Formation, Thioflavin T Binding). Conditions: recombinant tau K18 P301L (four-repeat tau fragment), heparin-induced fibrillization, ThT fluorescence; series mostly up to 57.4 µM; activity, negative = inhibition: at the top concentration.
Chain of UniProt P10636 (P10636 whole entry, looked up, the tested form may be a part): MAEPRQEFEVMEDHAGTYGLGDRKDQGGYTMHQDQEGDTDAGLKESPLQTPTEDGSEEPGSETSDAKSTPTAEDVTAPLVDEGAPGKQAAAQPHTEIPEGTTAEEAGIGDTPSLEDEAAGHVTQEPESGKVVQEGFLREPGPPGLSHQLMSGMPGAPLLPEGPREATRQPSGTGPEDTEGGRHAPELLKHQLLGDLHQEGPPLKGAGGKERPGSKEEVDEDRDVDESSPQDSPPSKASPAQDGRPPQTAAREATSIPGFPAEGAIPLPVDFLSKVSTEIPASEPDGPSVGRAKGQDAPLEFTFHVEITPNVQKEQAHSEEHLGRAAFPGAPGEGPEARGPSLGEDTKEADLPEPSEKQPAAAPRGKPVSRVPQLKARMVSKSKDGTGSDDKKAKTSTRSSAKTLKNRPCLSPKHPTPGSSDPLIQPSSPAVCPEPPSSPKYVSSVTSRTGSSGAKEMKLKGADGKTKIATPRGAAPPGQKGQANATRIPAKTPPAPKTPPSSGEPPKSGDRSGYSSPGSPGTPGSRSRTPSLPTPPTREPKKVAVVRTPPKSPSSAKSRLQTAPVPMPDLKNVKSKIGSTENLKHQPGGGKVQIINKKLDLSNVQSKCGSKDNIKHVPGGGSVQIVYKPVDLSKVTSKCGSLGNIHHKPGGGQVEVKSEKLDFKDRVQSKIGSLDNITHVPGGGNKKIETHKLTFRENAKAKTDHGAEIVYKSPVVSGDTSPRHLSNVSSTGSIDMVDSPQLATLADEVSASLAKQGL
How it was run: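 Heparin-induced (20 uM) aggregation of recombinant human K18 P301L tau, 15 uM unlabeled with 0.24 uM labeled, pH 7 acetate buffer, 6 hr at 37 C with compound. Fibrils quantified by 30 uM ThT fluorescence after 1 hr ambient incubation.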
% is set by controls: 0 for no effect and ±100 for the full control effect; potency is the fitted concentration of half-maximal effect; tags give direction and shape of the fitted curve.
Note: nearly all actives have a fitted effect of over 55% in size.

Row | SMILES | Potency | activity, negative = inhibition
1 | Cc1cc(NC(=O)Cn2cc([N+](=O)[O-])cn2)no1 | inconclusive: 35.5 µM [inhibitor, single point] | –
2 | CCOC(=O)C1(CCCc2ccccc2)CCN(C(=O)c2ocnc2C)CC1 | – | inactive: -13.3%
3 | Cc1ccccc1-n1nc(C)c2c1N=C1C(Cl)=CC(Cl)=CN1C2c1ccc(C(=O)O)cc1 (stereo not given) | inconclusive: 15.8 µM [inhibitor, partial curve] | –
4 | Cc1ccc(S(=O)(=O)CCC(=O)Nc2ccc(OC(F)(F)F)cc2)cc1 | – | inactive: 8.33%
5 | CSc1nc2ccc(NC(=O)CSc3nnc(N)s3)cc2s1 | inconclusive: 7.94 µM [inhibitor, partial curve] | –
6 | Cc1cccc(NC(=O)Cn2ncc3c4ccccc4n(Cc4ccccc4)c3c2=O)c1C | – | inactive: -6.01%
7 | C/C(=N\O)c1ccc2[nH]ccc2c1 | inconclusive: 8.91 µM [inhibitor, partial curve] | –
8 | O=[N+]([O-])c1ccc2[nH]nc(-c3ccccc3)c2c1 | – | inactive: -7.65%
9 | Cn1nc(-c2ccccc2)c2nc3ccccc3nc21 | inconclusive: 39.8 µM [activator, single point] | –
10 | Cn1cccc1-c1cc(C(=O)N2CCc3c([nH]c4ccccc34)C2c2ccccn2)[nH]n1 (stereo not given) | – | inactive: -12%
11 | Cc1ccc2oc(C(=O)Nc3ccc(S(=O)(=O)N(C)c4ccccc4)cc3)cc(=O)c2c1 | – | inactive: -5.79%
12 | Nn1c(SCC(=O)N2CCc3ccccc3C2)nnc1-c1cccs1 | inconclusive: 31.6 µM [inhibitor, partial curve] | –
13 | Cc1ccc2c(c1)nnn2C1CCN(CC(=O)N2CCN(c3ccc(F)cc3)CC2)CC1 | inconclusive: 5.01 µM [inhibitor, partial curve] | –
14 | CCc1ccc(NCc2cc3cc4c(cc3n(CC(=O)Nc3ccccc3OC)c2=O)OCCO4)cc1 | inconclusive: 39.8 µM [inhibitor, single point] | –
15 | Cc1cc(C)n2cc(-c3ccc(Cl)cc3)c(C(=O)O)c2n1 | inconclusive: 15.8 µM [inhibitor, partial curve, poor fit] | –
16 | COc1ccc(-c2cc(CCCC(=O)N3CCN(c4ccc(OC)cc4)CC3)no2)cc1 | inconclusive: 1.41 µM [inhibitor, partial curve] | –
17 | COc1ccccc1/C=C/c1nc(C#N)c(N2CCN(C)CC2)o1 | inconclusive: 35.5 µM [inhibitor, single point] | –
18 | Cc1ccc(C(=O)COC(=O)CNC(=O)COc2ccccc2C)cc1C | inconclusive: 5.01 µM [inhibitor, partial curve] | –
19 | CC(=O)Nc1ccc2c(c1)OCCOCCOc1cc(NC(C)=O)ccc1OCCO2 | inconclusive: 7.94 µM [inhibitor, full curve] | –
20 | COc1cc(/C=N/Nc2nncn2/N=C/c2ccc(O)c(OC)c2)ccc1O | inconclusive: 25.1 µM [inhibitor, partial curve] | –
21 | Cc1ccc(CNC(=O)C2CCN(S(=O)(=O)c3cccc4nonc34)CC2)cc1 | – | inactive: -1.52%
22 | Cc1ccc2[nH]c(=O)c(CN3CCCCC3)c(-c3ccccc3)c2c1 | inconclusive: 15.8 µM [inhibitor, partial curve] | –
23 | COC(=O)c1ccc2c(c1)SC1=C(CCCC1=O)N2 | active: 12.6 µM | –

Row | SMILES | Potency | activity, negative = inhibition
24 | O=C(C1CC1)N1N=C(C2CCCCC2)CC1(O)C(F)(F)F (stereo not given) | – | inactive: -4.78%
25 | N#CC1=C(N)SC(N)=C(C#N)C1c1c(Cl)cccc1Cl | inconclusive: 39.8 µM [inhibitor, single point] | –
26 | Cc1ccc(OCC(=O)NCc2ccco2)cc1C | inconclusive: 35.5 µM [inhibitor, partial curve, poor fit] | –
27 | Cc1ccc(-n2nc(-c3ccco3)cc2C(=O)O)c(C)c1 | inconclusive: 39.8 µM [inhibitor, single point] | –
28 | CCOc1cc(/C=C2\SC(=S)N(Nc3ccccc3)C2=O)ccc1O | active: 11.2 µM | –
29 | CCOC(=O)c1cccc(NC(=O)CC2C(=O)N(c3ccc(Cl)cc3)C(=O)N2C2CCCC2)c1 (stereo not given) | – | inactive: -6.36%
30 | COc1cc(/C=N/O)cc(Br)c1OCc1cccc(Cl)c1 | inconclusive: 15.8 µM [inhibitor, partial curve] | –
31 | CC(C)c1ccc(/C=N/NC(=O)CC(=O)NCc2ccccc2)cc1 | – | inactive: -0.106%
32 | CCOC(=O)N1CCN(C(=O)c2ccc3c(=O)n(-c4ccc(OC)cc4OC)c(=S)[nH]c3c2)CC1 | – | inactive: 5.03%
33 | O=C(/C=C/c1ccco1)Nc1cccc(NC(=O)/C=C/c2ccco2)n1 | inconclusive: 31.6 µM [inhibitor, partial curve, poor fit] | –
34 | CCN(CC)C(=O)c1ccccc1NC(=O)c1cccc(S(=O)(=O)N(CC)CC)c1 | – | inactive: -0.737%
35 | C#CCOCCOCCOCCNc1nc(N2CCN(C(=O)[C@H]([C@@H](C)CC)n3cc(CCCN=C(N)N)nn3)CC2)nc(N2CCN(C(=O)[C@H]([C@@H](C)CC)n3cc(CCCN=C(N)N)nn3)CC2)n1 | – | inactive: -8.19%
36 | CCc1nc2ccc(C(=O)Nc3ccc4c(c3)OCO4)cc2nc1CC | inconclusive: 12.6 µM [inhibitor, partial curve] | –
37 | O=C(CSc1nnc2c(n1)[nH]c1ccc(S(=O)(=O)N3CCOCC3)cc12)Nc1ccccc1Cl | inconclusive: 25.1 µM [activator, partial curve] | –
38 | CCOc1ccccc1NC(=O)CSc1nc2c(sc3ccccc32)c(=O)n1CCCC(=O)NC1CCCC1 | – | inactive: 0.115%
39 | CCOC(=O)C1=C(c2ccccc2)N=c2s/c(=C\c3ccc(O)cc3)c(=O)n2C1c1cccs1 (stereo not given) | inconclusive: 10 µM [inhibitor, partial curve] | –
40 | O=C(Nc1nccs1)c1csc2c1CCCC2 | – | inactive: -12.4%
41 | CC(C)(C)c1nnc(NC(=O)C2c3ccccc3Oc3ccccc32)s1 | active: 22.4 µM | –
42 | CCCCCCn1c(=O)c(-c2ccccc2)c(O)c2ccccc21 | inconclusive: 44.7 µM [inhibitor, partial curve, poor fit] | –
43 | Cc1ccc(S(=O)(=O)N2CCN(C3CCN(Cc4ccccc4)CC3)CC2)cc1 | – | inactive: -5.89%
44 | Cc1cc(N/N=C/c2cccc(Br)c2)nc2ccccc12 | inconclusive: 11.2 µM [inhibitor, partial curve] | –
45 | COc1cc(Cl)c(NC(=O)c2cc(S(=O)(=O)N3CCCCC3)c[nH]2)c(OC)c1 | – | inactive: -4.24%

Reference: PubChem BioAssay AID1460 (National Center for Advancing Translational Sciences (NCATS), 2008)
